# From the supplement of paper PMC4604168 (melanoma cell lines)
# Some of the results follow. Repeats are few or missing, and single values can be far off.
# Test system: IPC-298
# Test: cell count relative to DMSO control; melanoma cells; higher = more viable cells
# Conditions: library dose: low library concentration; 72 h
# 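Further: cell number obtained by counting DAPI-stained nuclei in high-throughput microscope images with image analysis software, screen run in 1,536-well plates.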
row,SMILES,cell count [%]
1,"N#CC[C@H](C1CCCC1)n1cc(-c2ncnc3[nH]ccc23)cn1 [ruxolitinib] + Nc1cccc2c1CN(C1CCC(=O)NC1=O)C2=O [lenalidomide] (first compound 1 µM, partner dose 1 µM)",98
2,"CC[C@]1(O)C[C@H]2CN(CCc3c([nH]c4ccccc34)[C@@](C(=O)OC)(c3cc4c(cc3OC)N(C=O)[C@H]3[C@@](O)(C(=O)OC)[C@H](OC(C)=O)[C@]5(CC)C=CCN6CC[C@]43[C@@H]65)C2)C1 [vincristine] + C#Cc1cccc(Nc2ncnc3cc(OCCOC)c(OCCOC)cc23)c1 [erlotinib] (first compound 0.0001 µM, partner dose 0.8 µM)",83.2
3,"CC[C@]1(O)C[C@H]2CN(CCc3c([nH]c4ccccc34)[C@@](C(=O)OC)(c3cc4c(cc3OC)N(C=O)[C@H]3[C@@](O)(C(=O)OC)[C@H](OC(C)=O)[C@]5(CC)C=CCN6CC[C@]43[C@@H]65)C2)C1 [vincristine] + Nc1cccc2c1CN(C1CCC(=O)NC1=O)C2=O [lenalidomide] (first compound 0.0001 µM, partner dose 1 µM)",94.6
4,"N#CC[C@H](C1CCCC1)n1cc(-c2ncnc3[nH]ccc23)cn1 [ruxolitinib] + NC1(c2ccc(-c3nc4ccn5c(=O)[nH]nc5c4cc3-c3ccccc3)cc2)CCC1 [MK2206] (first compound 1 µM, partner dose 0.4 µM)",103
5,"N#CC[C@H](C1CCCC1)n1cc(-c2ncnc3[nH]ccc23)cn1 [ruxolitinib] + C#Cc1cccc(Nc2ncnc3cc(OCCOC)c(OCCOC)cc23)c1 [erlotinib] (first compound 1 µM, partner dose 0.8 µM)",99.7
6,"Cc1cc(Nc2cc(N3CCN(C)CC3)nc(Sc3ccc(NC(=O)C4CC4)cc3)n2)n[nH]1 [Tozasertib] + O=c1cc(-c2cccc3c2Sc2ccccc2S3)oc(N2CCOCC2)c1 [KU55933] (first compound 0.006 µM, partner dose 1 µM)",104
7,"N#CC[C@H](C1CCCC1)n1cc(-c2ncnc3[nH]ccc23)cn1 [ruxolitinib] + COCC[n+]1c2c(n(Cc3cnccn3)c1C)C(=O)c1ccccc1C2=O [YM155] (first compound 1 µM, partner dose 0.0004 µM)",90.2
8,"CC[C@]1(O)C[C@H]2CN(CCc3c([nH]c4ccccc34)[C@@](C(=O)OC)(c3cc4c(cc3OC)N(C=O)[C@H]3[C@@](O)(C(=O)OC)[C@H](OC(C)=O)[C@]5(CC)C=CCN6CC[C@]43[C@@H]65)C2)C1 [vincristine] + NC(=O)c1ccc(N(C(N)=O)c2c(F)cccc2F)nc1-c1ccc(F)cc1F [VX702] (first compound 0.0001 µM, partner dose 0.4 µM)",109
9,"CC[C@]1(O)C[C@H]2CN(CCc3c([nH]c4ccccc34)[C@@](C(=O)OC)(c3cc4c(cc3OC)N(C=O)[C@H]3[C@@](O)(C(=O)OC)[C@H](OC(C)=O)[C@]5(CC)C=CCN6CC[C@]43[C@@H]65)C2)C1 [vincristine] + CC(=O)c1c(C)c2cnc(Nc3ccc(N4CCNCC4)cn3)nc2n(C2CCCC2)c1=O [palbociclib] (first compound 0.0001 µM, partner dose 0.04 µM)",84.6
10,"N#CC[C@H](C1CCCC1)n1cc(-c2ncnc3[nH]ccc23)cn1 [ruxolitinib] + CCCS(=O)(=O)Nc1ccc(F)c(C(=O)c2c[nH]c3ncc(Cl)cc23)c1F [PLX4720] (first compound 1 µM, partner dose 0.08 µM)",95.6
11,"Cc1cc(Nc2cc(N3CCN(C)CC3)nc(Sc3ccc(NC(=O)C4CC4)cc3)n2)n[nH]1 [Tozasertib] + N#CC[C@H](C1CCCC1)n1cc(-c2ncnc3[nH]ccc23)cn1 [ruxolitinib] (first compound 0.006 µM, partner dose 1 µM)",99.6
12,"Cc1cc(Nc2cc(N3CCN(C)CC3)nc(Sc3ccc(NC(=O)C4CC4)cc3)n2)n[nH]1 [Tozasertib] + NC(=O)c1ccc(N(C(N)=O)c2c(F)cccc2F)nc1-c1ccc(F)cc1F [VX702] (first compound 0.006 µM, partner dose 0.4 µM)",96
